# Experimental data as given in the supplement of paper PMC9446081.
# In all, about 39,000 compounds went through this assay and about 220 (0.56%) showed activity. This is one part of the list.
# Test system: Escherichia coli K-12 BW25113
# Assay: relative growth (OD600 normalised to plate interquartile mean) (fraction); higher = less growth inhibition, active = 0.2 or less
# Conditions: 50 µM; LB; incubation time: overnight (16-24 h)
# 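Note: static incubation at 37 °C against the wild-type strain, values averaged over two biological replicates.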
row,Structure (SMILES),relative growth
1,Cc1noc(C)c1S(=O)(=O)Nc1ccc2c(c1)CC(=O)N([C@H](C)CO)C[C@H](C)[C@H](CN(C)Cc1ccncc1)O2,inactive: 1.01
2,Cc1ccc(S(=O)(=O)N(C)C[C@H]2Oc3ccc(NC(=O)Nc4cccc5ccccc45)cc3CC(=O)N([C@@H](C)CO)C[C@H]2C)cc1,inactive: 1.02
3,C[C@H](CO)N1C[C@H](C)[C@H](CN(C)Cc2cccc3c2OCCCO3)OCc2cnnn2CCCC1=O,inactive: 0.964
4,Cl.NCCCCC(N)C(=O)O (stereo unspecified),inactive: 1.02
5,C[C@@H]1CCCCO[C@H](CN(C)C(=O)Nc2ccc(C(F)(F)F)cc2)[C@H](C)CN([C@@H](C)CO)C(=O)c2cc(NC(=O)c3ccccc3)ccc2O1,inactive: 1.02
6,C[C@H]1CCCCO[C@@H](CN(C)S(=O)(=O)c2cn(C)cn2)[C@@H](C)CN([C@@H](C)CO)C(=O)c2cc(NS(=O)(=O)c3cn(C)cn3)ccc2O1,inactive: 0.974
7,Nc1nonc1C(=O)OCC(=O)c1ccccc1,inactive: 1.03
8,C[C@@H]1CN([C@@H](C)CO)C(=O)c2cccc(NS(C)(=O)=O)c2O[C@@H]1CN(C)Cc1ccc(C(F)(F)F)cc1,inactive: 0.992
9,CC[C@H]1OC(=O)C[C@@H](O)[C@H](C)[C@@H](O[C@@H]2O[C@H](C)[C@@H](O[C@H]3C[C@@](C)(O)[C@@H](O)[C@H](C)O3)[C@H](N(C)C)[C@H]2O)[C@@H](CC=O)C[C@@H](C)C(=O)/C=C/C(C)=C/[C@@H]1CO[C@@H]1O[C@H](C)[C@@H](O)[C@@H](OC)[C@H]1OC,inactive: 0.971
10,CC(=O)N[C@@H](Cc1ccc(F)cc1)C(=O)O,inactive: 0.99
11,Cc1ccc(S(=O)(=O)N[C@H]2CC[C@@H](CC(=O)N3CCC(Cc4ccccc4)CC3)O[C@@H]2CO)cc1,inactive: 1.02
12,COc1cc2c(cc1OC)CC(=O)N(CCCN(C)CC1Cc3cc(OC)c(OC)cc31)CC2.Cl (stereo unspecified),inactive: 0.99
13,COc1ccc(CN(C)C[C@@H]2Oc3ccc(NS(=O)(=O)c4cn(C)cn4)cc3CC(=O)N([C@H](C)CO)C[C@@H]2C)cc1,inactive: 1.01
14,C[C@@H]1CN([C@@H](C)CO)S(=O)(=O)c2ccc(C#CC3(O)CCCC3)cc2O[C@@H]1CN(C)C(=O)Nc1ccccc1,inactive: 0.994
15,C[C@@H]1CN([C@H](C)CO)C(=O)Cc2cc(NC(=O)Nc3cccc4ccccc34)ccc2O[C@@H]1CN(C)C(=O)Nc1ccc(C(F)(F)F)cc1,inactive: 1.04
16,CC#CC[C@@H](C)[C@H](O)/C=C/[C@@H]1[C@H]2C/C(=C/CCCC(=O)O)C[C@H]2C[C@H]1O,inactive: 0.977
